Measured values from PubChem BioAssay AID1963576 (National Center for Advancing Translational Sciences (NCATS), 2024).
The campaign covered roughly 46,000 compounds. About 60 (0.1%) were called active. Roughly 3% stayed inconclusive and do not appear here. Calls come from the whole dose curve; as a rule, active = well fitted inhibition curve with a large enough effect; inconclusive = small, poorly fitted or top-dose-only effect; inactive = no such curve, though single readings can be large or run the other way. The list shows a part of the results.

Assay: Primary qHTS assay for Inhibitors of ovarian cancer metastasis using an organotypic tumor microenvironment (TME) model.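 For activity change, negative = inhibition: plate controls were DMSO wells for no effect and tomatine positive control wells for full effect.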 Note: nearly all actives have a fitted effect of over 65% in size.
Conditions: SKOV3ip1-GFP adhesion/invasion on 3D omental model, fluorescence; series mostly up to 45.8 µM; activity change, negative = inhibition: at the top concentration
Method in brief: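 Primary human omental fibroblast/mesothelial 3D culture pre-formed 48 h. SKOV3ip1-GFP cells added with compounds (0.36-46 umol/L), incubated 2 h RT/16 h 37 C, fixed; GFP cells quantified at 488/509 nm.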

Activity change, negative = inhibition, inactive:
O=c1ncn2nc(Sc3ccc(F)cc3F)ccc2c1-c1c(Cl)cccc1Cl -6.69%, Cc1coc2cc3oc(=O)c(CC(=O)NCc4ccccc4)c(C)c3cc12 -3.46%, CCOc1ccc2nc(N3CCC(C(=O)Nc4c(C)cccc4C)CC3)sc2c1 -8.27%, Cc1ccc(S(=O)(=O)Nc2cc3c(cc2Cl)n(C)c(=O)c(=O)n3C)cc1 14.8%, Cc1ccc(C)c(N2CCN(C(=O)c3cc4c(=O)n(Cc5cccs5)ccc4nc3C)CC2)c1 0.532%, CCCCOc1ccc(CNC(=O)c2ccc(NC(=O)N3CCSc4ncccc43)cc2)cc1 -6.72%, Cc1ccc(-n2ncc(C(=O)N3CCC(c4ccccc4)C3)c2C2CCN(C(=O)OC(C)(C)C)CC2)cc1 (stereo not given) 3.7%, O=c1[nH]cc(F)c(=O)[nH]1 -8.04%, Cc1cc(C)c2oc(C(=O)Nc3ccc(S(=O)(=O)N(C)c4ccccc4)cc3)cc(=O)c2c1 7.43%, COC(=O)CCN(C(=O)c1c(C)oc2ncnc(N3CCOCC3)c12)c1ccccc1 -7.93%, CCCc1nn2c(C)c(-c3ccccc3)nc2s1 2.92%, O=S(=O)(Nc1cccc(-c2ccc(N3CCOCC3)nn2)c1)c1ccc(F)cc1F 2.22%, CS(=O)(=O)c1ccc([C@@H](O)[C@@H](CO)NC(=O)C(Cl)Cl)cc1 -15%, O=C(/C=C/c1ccccc1)N1CCN(Cc2cc(=O)n3nc(-c4ccccc4)sc3n2)CC1 -8.35%, CCC(=O)N1CCc2cc(S(=O)(=O)N(C)c3cccc(C)c3)ccc21 -8.04%, COc1c(C)c2c(c(O)c1CC=C(C)CCC(=O)O)C(=O)OC2 -8.11%, Cc1ccccc1NC(=O)c1sc2nc(N3CCOCC3)c3c(c2c1N)CC(C)(C)OC3 0.836%, CCCOc1ccc(C2C(=O)N(C3CCCCCC3)CC(=O)N2CCCOCC)cc1OC (stereo not given) 3.55%, CCOc1ccccc1N1CC(c2nc3ccccc3n2CCOc2ccc(C(C)(C)C)cc2)CC1=O (stereo not given) -7.9%, CCN(c1cc(C)cc(C)c1)S(=O)(=O)c1nnc(NC(=O)c2cccc(F)c2)s1 -6.17%, COc1ccc2c(c1)c1c(c(=O)n(CCc3ccccc3)c(=O)n1Cc1ccc(Cl)cc1)n2C 30.6%, Cc1ccc(NC(=O)/C(C#N)=C\c2ccc(Cl)cc2Cl)cc1C 1.57%, Cc1ccc(-c2ccc(CCC(=O)O)n2-c2ccc(C(C)C)cc2)cc1 6.58%, Nc1c(-c2nc(-c3ccccc3)no2)nnn1CC(=O)Nc1ccccc1 -2.78%, CCOc1ccccc1NC(=O)N1CCN(S(=O)(=O)c2ccc3c(ccn3C)c2)CC1 8%, COc1cc(NC(=O)Cn2ccn(-c3cc(C)cc(C)c3)c(=O)c2=O)cc(OC)c1 10%, COc1ccc(N2CCN(S(=O)(=O)CCNC(=O)c3cc(=O)c4ccccc4o3)CC2)cc1 -0.241%, CN(C)c1oc(-c2ccc(COc3ccccc3)o2)nc1C#N -14.3%, COc1ccc2c(c1)CCc1sc(NC(=O)c3ccc(Br)cc3)nc1-2 4.47%, C[C@@H](c1ncncc1F)[C@](O)(Cn1cncn1)c1ccc(F)cc1F 2.59%, CC(C)(C)c1ccc(Oc2nc3ccccn3c(=O)c2/C=C(\C#N)c2nc3ccccc3s2)cc1 13.1%, Cc1ccc(NC(=O)C(=O)NCC(c2ccc3c(c2)OCO3)N2CCN(C)CC2)c(C)c1 (stereo not given) -13.3%, CC(=O)Nc1cccc(Nc2nc3ccccc3n3c(C)nnc23)c1 -7.54%, CCOC(=O)N1CCC(NC(=O)c2cnn(-c3ccc(C)cc3C)c2C2CCN(C(=O)OC(C)(C)C)CC2)CC1 -3.77%, CCOc1ccccc1N(C)C(=O)Cn1nc(Cc2ccncc2)c2ccccc2c1=O -24.2%, CC(=O)c1nn(-c2ccc(OC(F)(F)F)cc2)nc1Nc1ccccc1 -4.2%, O=C(CN1CCCN(Cc2ccc(F)cc2)S1(=O)=O)Nc1ccc2c(c1)OCCO2 -2.96%, CCOC(=O)c1c(NC(=O)CCCOc2ccc(C(C)(C)C)cc2)sc2c1CCCC2 1.96%, COc1ccc(OC)c(NC(=O)c2cnc(N3CCCCC3)c3ccccc23)c1 -19.2%, CCC(=O)N1CCc2cc(S(=O)(=O)NCCC(=O)NCc3ccc(C)cc3)ccc21 -9.98%

outcome, inactive:
Cc1ccc(C)c(CN2C(=O)c3ccccc3S(=O)c3ccc(C(=O)N(C)Cc4ccccc4)cc32)c1 (stereo not given), O=c1c2c3c(sc2n(Cc2cc(=O)n4ccccc4n2)c(=O)n1-c1ccc(Cl)cc1)CCC3, Cc1cccc(N2CCN(C(=O)C3CCN(S(=O)(=O)c4ccc5c(c4)oc(=O)n5C)CC3)CC2)c1C, COC(=O)CSc1nnc2n(-c3ccccc3)c(=O)c3c4c(sc3n12)COC(C(C)C)C4 (stereo not given), CCOc1ccccc1N(C)C(=O)Cn1nc(Cc2cccnc2)c2ccccc2c1=O, COc1cc(NC(=O)N2CCN(c3cc(-c4noc(C)n4)ccc3C)CC2)cc(OC)c1OC, CCN(CC)CCNC(=O)c1cc2c(=O)[nH]c3ccc(C)cc3c2s1, COc1ccccc1CNC(=O)Cn1ncc2c(C)n(Cc3ccccc3Cl)c(C)c2c1=O, CCN(c1ccc(C)cc1)S(=O)(=O)c1nnc(NC(=O)c2cccs2)s1, CC(C)c1ccccc1NC(=O)CSc1nnc(COc2ccccc2Cl)o1, CC(C)CN(CCNC(=O)c1cn(C)c2ccc(S(=O)(=O)N3CCCCCC3)cc2c1=O)CC(C)C, Cc1cc(C)cc(NC(=O)CSc2nc(=O)[nH]c3c2CCC3)c1, CCc1ccc(NC(=O)CC2C(=O)N(c3ccc(C)cc3)C(=O)N2C2CCCC2)cc1 (stereo not given), CS(=O)(=O)c1cccc(-c2nnc(NC(=O)c3ccc4c(c3)OCCO4)o2)c1, Cc1ccc(NC(=O)C(Cc2ccccc2)NS(=O)(=O)c2ccc3c(c2)CCC(=O)N3)cc1 (stereo not given), Cc1cc(C)cc(NC(=O)CSc2nc3ncccc3[nH]2)c1, CCc1nn(CCCC(=O)NCc2ccc(C)cc2)c(=O)c2cc3occc3n12, CCCSc1ncc(Cl)c(C(=O)N(Cc2cccc(Cl)c2)C2CCS(=O)(=O)C2)n1 (stereo not given), CCOc1ccc(-c2cc(NC(=O)Nc3ccc(Cl)cc3)c(C(=O)OC)s2)cc1, COc1ccccc1C(=O)OCc1cc(=O)n2nc(-c3cccs3)sc2n1
